# Measurements taken from the supplement of paper PMC7826260.
# The other results are listed elsewhere or left out. Viral Rep nickase domains cut single-stranded DNA in vitro for 1 h at 37 °C with 3 µM enzyme; only the middle of the 90-letter strands is printed. The score is log2 (uncut reads / reads without enzyme); the lower, the more was cut; hits are not called. Because reads are shares of a total, they shift together; values above 0 arise when much of the pool is cut.
# Key:
# Assay in all cases: uncleaved DNA left, log2 of reads against the no-enzyme library (log2 ratio); higher = less cleavage (more negative = more Rep cleavage of the k-mer); sequences stand for … in CTCGTCCG…ACCGGAGA
# [1] = test system: T1, Rep nickase domain of Muscovy duck circovirus
# T1 sequence (residues 1-111 of Rep, tag left off): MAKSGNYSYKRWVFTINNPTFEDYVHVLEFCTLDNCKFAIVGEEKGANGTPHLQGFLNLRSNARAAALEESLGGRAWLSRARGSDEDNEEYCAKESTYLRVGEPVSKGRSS
# Procedure: (§1)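 A pool of 90-nt single-stranded DNAs with seven random bases just before the constant AC of the nick site (name = the seven bases) was cut by 3 µM recombinant His6-SUMO-tagged Rep nickase domain (300 nM DNA, 50 mM HEPES pH 8.0, 50 mM NaCl, 1 mM MnCl2, 1 h, 37 °C, three replicates). Uncut DNA was amplified and sequenced.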
# [2] = test system: T2, Rep nickase domain of banana bunchy top virus
# T2 sequence (residues 1-94 of Rep, tag left off): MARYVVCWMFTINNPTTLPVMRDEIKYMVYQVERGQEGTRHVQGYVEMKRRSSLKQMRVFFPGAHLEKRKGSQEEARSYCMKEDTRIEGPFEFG
# Procedure: as §1
# [3] = test system: T3, Rep nickase domain of cabbage leaf curl virus
# T3 sequence (residues 1-116 of Rep, tag left off): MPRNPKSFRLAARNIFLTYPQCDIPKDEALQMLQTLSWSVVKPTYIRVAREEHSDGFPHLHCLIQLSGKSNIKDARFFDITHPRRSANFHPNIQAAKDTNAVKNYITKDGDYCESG
# Procedure: as §1
# [4] = test system: T4, Rep nickase domain of chickpea chlorotic dwarf virus
# T4 sequence (residues 1-124 of Rep, tag left off): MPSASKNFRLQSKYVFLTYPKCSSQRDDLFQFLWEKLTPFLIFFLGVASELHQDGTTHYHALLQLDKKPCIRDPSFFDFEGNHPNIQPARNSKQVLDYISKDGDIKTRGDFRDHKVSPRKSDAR
# Procedure: as §1
# [5] = test system: T5, Rep nickase domain of faba bean necrotic yellows virus
# T5 sequence (residues 1-98 of Rep, tag left off): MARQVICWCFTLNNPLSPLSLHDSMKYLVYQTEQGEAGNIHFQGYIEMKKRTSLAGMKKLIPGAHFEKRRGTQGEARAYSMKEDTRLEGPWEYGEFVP
# Procedure: as §1
# [6] = test system: T6, Rep nickase domain of maize striate mosaic virus
# T6 sequence (residues 1-117 of Rep, tag left off): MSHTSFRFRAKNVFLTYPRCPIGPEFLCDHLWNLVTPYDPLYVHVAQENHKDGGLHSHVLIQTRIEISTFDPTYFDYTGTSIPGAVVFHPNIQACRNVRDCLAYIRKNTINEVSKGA
# Procedure: as §1
# [7] = test system: T7, Rep nickase domain of porcine circovirus 2
# T7 sequence (residues 2-116 of Rep, tag left off): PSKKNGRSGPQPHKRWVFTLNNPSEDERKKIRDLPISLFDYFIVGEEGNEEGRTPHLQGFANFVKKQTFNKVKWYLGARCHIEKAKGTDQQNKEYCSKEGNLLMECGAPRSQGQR
# Procedure: as §1
# [8] = test system: T8, Rep nickase domain of tomato yellow leaf curl virus
# T8 sequence (residues 1-136 of Rep, tag left off): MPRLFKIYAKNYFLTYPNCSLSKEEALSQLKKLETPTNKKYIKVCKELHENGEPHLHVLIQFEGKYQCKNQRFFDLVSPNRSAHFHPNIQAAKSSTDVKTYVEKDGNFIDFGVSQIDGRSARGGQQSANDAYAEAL
# Procedure: as §1
# [9] = test system: T9, Rep nickase domain of wheat dwarf virus
# T9 sequence (residues 1-137 of Rep, tag left off): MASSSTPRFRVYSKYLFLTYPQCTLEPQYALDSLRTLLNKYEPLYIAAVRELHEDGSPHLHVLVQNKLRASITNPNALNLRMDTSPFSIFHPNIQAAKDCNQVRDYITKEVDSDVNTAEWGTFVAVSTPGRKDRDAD
# Procedure: as §1
Sequence,uncleaved DNA left (log2) [1],uncleaved DNA left (log2) [2],uncleaved DNA left (log2) [3],uncleaved DNA left (log2) [4],uncleaved DNA left (log2) [5],uncleaved DNA left (log2) [6],uncleaved DNA left (log2) [7],uncleaved DNA left (log2) [8],uncleaved DNA left (log2) [9]
ACGCCGA,-0.209,-0.085,-0.349,-0.271,-0.0656,-0.967,0.102,-0.227,-0.136
CTTAGAT,0.0817,-0.0171,0.204,0.483,-0.003,0.591,0.065,-0.0435,0.0859
TAGGGCA,0.0408,0.0987,0.548,0.825,0.114,1.17,0.0879,0.038,0.0731
CTTTGCA,0.0103,-0.0443,-0.783,-0.891,-0.078,-1.18,-0.0365,0.101,-0.0193
CCAGCAC,-0.0853,0.0263,-0.217,-0.591,-0.0877,-0.772,-0.0131,-0.211,-0.0749
ATTGGCA,0.0323,-0.00658,-0.447,-0.745,-0.116,-1.05,-0.0936,0.0306,-0.137
TCTTAAT,-2.4,-0.276,-0.0381,-0.969,0.0159,-0.467,-3.39,0.048,-0.102
TGCCCAT,0.0297,-0.0572,0.257,0.0851,-0.174,0.0425,-0.0391,-0.0305,0.115
GGGTGCG,-0.00272,-0.0116,-0.174,0.994,0.0666,0.742,0.0882,-0.117,-0.0725
GGACTGG,0.0902,0.0527,0.556,1.44,-0.0184,1.91,0.166,0.0376,0.156
ACCCAAT,0.02,0.0397,-0.0505,-0.372,0.119,-0.576,-0.00123,-0.0348,0.0988
TTTTTAA,0.105,0.0724,0.324,0.267,-0.0759,0.91,0.0264,0.0571,0.0382
ATAGAGA,0.194,0.105,0.392,0.544,0.198,-0.482,0.268,0.0631,0.147
GGGCATG,0.0486,0.175,0.905,1.95,0.199,2.23,0.214,-0.0928,0.156
CTGTAGT,-1.58,-0.36,-0.464,-0.949,-0.669,-0.961,-3.52,-0.109,-0.123
AGGAGCA,-0.0876,-0.00909,-0.068,0.145,-0.0164,-0.298,-1.28,-0.148,-0.0238
CTAGCCG,-0.0615,-0.0791,-0.849,-0.414,0.0723,-0.872,0.0879,0.0201,-0.0379
AGACACA,-0.094,0.123,0.432,1,0.0425,1.95,0.0386,0.0107,0.068
CCGATCG,-0.0813,-0.11,-0.827,-0.152,0.0163,-0.877,0.123,-0.144,-0.105
AGGGTTG,-0.0154,0.0126,0.204,0.867,0.0825,1.02,0.122,-0.0444,0.0468
GATCACA,-0.15,-0.0504,0.116,-0.965,-0.16,0.724,-0.0904,-0.0253,0.0613
TGCACGA,0.0541,0.0378,-0.0708,-0.0197,0.1,-0.692,0.119,0.0317,0.129
CTCATCA,-0.169,0.028,0.0867,-0.626,-0.112,-0.42,-0.197,-0.0163,0.00906
GGCGCAA,-0.0302,0.14,0.483,1.54,-0.0646,1.73,0.15,-0.0267,0.145
GACGATA,0.0388,-0.0119,0.24,-0.735,0.0295,0.723,-0.053,-0.0978,0.035
AAACCGC,0.0412,-0.0372,-0.586,-0.927,-0.0392,-1.02,-0.0896,-0.116,-0.0613
TATACGC,-0.0784,-0.1,0.00757,-0.52,0.0619,-0.534,0.122,-0.000615,-0.136
GTTTGTC,0.0472,0.0889,0.436,1.21,0.0254,1.18,0.113,0.188,0.121
CCAGGCC,-0.063,-0.0484,0.0895,0.218,-0.196,-0.313,-0.144,0.0799,-0.054
TCGTGAA,0.177,0.0193,0.152,0.186,-0.0359,0.282,-0.35,0.0569,0.0818
